# Results published in PubChem BioAssay AID588342 (National Center for Advancing Translational Sciences (NCATS), 2011).
# Out of some 360,000 compounds screened, about 25,000 (6.9%) were called active. Inconclusive means that the source gave no clear call. Such entries were picked first, then a sample of the others. The call rests on the fitted dose curve; in most records, active means well fitted inhibition curve with a large enough effect; inconclusive means small, poorly fitted or top-dose-only effect; inactive means flat fitted curve, though single readings scatter. Potencies beside an inconclusive call are fits to weak or partial responses and may not hold up.
# Biological target: Luciferin 4-monooxygenase (Photinus pyralis) (UniProt P08659)
# Experiment: qHTS profiling assay for firefly luciferase inhibitor/activator using purifed enzyme and Km concentrations of substrates (counterscreen for miR-21 project); further: nearly all actives have a fitted effect of over 55% in size
# Details: purified FLuc, luminescence inhibition; series mostly up to 57.5 µM
# In short: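 Purified P. pyralis luciferase (10nM final) with 10uM D-luciferin and 10uM ATP (Km levels) in 50mM Tris acetate pH 7.5, 10mM Mg acetate, 0.01% Tween-20, 0.05% BSA; qHTS 6-point titration, ~60 µM downward; luminescence read.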
# Potency means the concentration at half of the fitted maximal effect; tags describe the fitted curve by direction and shape.
# Sequence of UniProt P08659 (P08659 whole entry, looked up): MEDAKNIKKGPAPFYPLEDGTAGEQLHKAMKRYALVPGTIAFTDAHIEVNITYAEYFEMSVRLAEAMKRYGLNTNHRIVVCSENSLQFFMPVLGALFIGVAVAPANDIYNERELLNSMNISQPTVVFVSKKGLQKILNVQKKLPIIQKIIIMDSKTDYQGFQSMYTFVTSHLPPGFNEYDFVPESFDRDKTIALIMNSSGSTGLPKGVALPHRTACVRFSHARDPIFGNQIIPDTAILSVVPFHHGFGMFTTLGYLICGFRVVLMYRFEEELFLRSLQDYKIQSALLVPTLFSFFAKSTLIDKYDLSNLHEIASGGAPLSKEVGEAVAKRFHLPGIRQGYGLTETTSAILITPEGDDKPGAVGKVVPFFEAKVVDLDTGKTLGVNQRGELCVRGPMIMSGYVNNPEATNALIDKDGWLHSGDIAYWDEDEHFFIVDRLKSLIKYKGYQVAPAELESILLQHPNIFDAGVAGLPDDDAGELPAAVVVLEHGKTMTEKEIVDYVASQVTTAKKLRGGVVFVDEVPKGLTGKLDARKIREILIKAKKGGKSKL
row,Structure (SMILES),Potency
1,O=C(CSc1ccc2ccccc2n1)N/N=C/c1ccc(O)cc1,"inconclusive: 23.9 µM [inhibitor, single point]"
2,Cc1cccn2c(=O)cc(CSc3nnc(NC(=O)COc4ccccc4)s3)nc12,"inconclusive: 10.7 µM [inhibitor, partial curve, poor fit]"
3,COCCCN1C(=O)c2ccc(C(=O)Nc3ccc(C)cc3C)cc2C1=O,"inconclusive: 9.53 µM [inhibitor, partial curve]"
4,Cc1ccc(Cc2cnc(NC(=O)c3ccco3)s2)cc1,active: 0.849 µM
5,Cc1c(Cl)cccc1NC(c1ccc(F)cc1)c1nnc(-c2ccccc2)o1 (stereo not given),"inconclusive: 37.9 µM [inhibitor, partial curve, poor fit]"
6,Cc1ccc2nc(C)c(C(=O)N/N=C/c3ccccc3[N+](=O)[O-])cc2c1,active: 6.75 µM
7,Cc1c(CCC(=O)O)c(=O)oc2cc(OCc3ccccc3Br)ccc12,"inconclusive: 21.3 µM [inhibitor, single point]"
8,CC(C)(C)C(=O)/C(C#N)=C/c1ccc(O)cc1,"inconclusive: 37.9 µM [inhibitor, partial curve, poor fit]"
9,N#CC1(NC(=O)COC(=O)c2ccccc2SCC(=O)N2CCCC2)CCCCC1,inactive
10,CCn1nc(C)c(CNC(=O)Nc2ccccc2C(=O)OC)c1C,"inconclusive: 26.9 µM [inhibitor, single point]"
11,O=C(Nc1cccnc1)c1cc(-c2ccc(Cl)cc2)on1,active: 1.51 µM
12,CCOc1cc(/C=C2/SC(=S)N(CC3CCCO3)C2=O)ccc1O (stereo not given),"inconclusive: 21.3 µM [inhibitor, single point]"
13,Cn1cccc1C(=O)C(=O)Nc1ccc(F)c(F)c1,active: 10.7 µM
14,COc1ccc2c(c1)c(=O)cc(-c1ccccc1)n2C,active: 23.9 µM
15,Cc1ccc(NC(=O)c2c(C)oc3c2C2=NCCN2C=N3)cc1F,inactive
16,COCc1c(C(=O)N2CCc3ccccc32)oc2ccccc12,"inconclusive: 26.9 µM [inhibitor, partial curve, poor fit]"
17,CCc1nc(SCC(=O)N2CCN(C(=O)c3ccco3)CC2)c2c3c(sc2n1)CCCC3,active: 16.9 µM
18,COc1ccc(-c2ccc(-c3noc(C(C)C)n3)c(OC)n2)cc1,"inconclusive: 26.9 µM [inhibitor, partial curve]"
19,Cc1cc(NC(=O)CSCC(=O)OCc2nnc(-c3ccccc3)o2)no1,"inconclusive: 26.9 µM [inhibitor, partial curve, poor fit]"
20,Cc1c(NC(=S)NC(=O)Cc2ccccc2)cccc1C(=O)O,"inconclusive: 21.3 µM [inhibitor, single point]"
21,COc1ccc(Nc2nnc(-c3ccc(C)c(S(=O)(=O)NCCO)c3)c3ccccc23)cc1C(N)=O,"inconclusive: 19 µM [inhibitor, partial curve]"
22,CCC1CCc2sc(C(=O)N(C)CC(=O)Nc3ccc(OC)cc3)cc2C1 (stereo not given),"inconclusive: 37.9 µM [inhibitor, partial curve, poor fit]"
23,COC(=O)CC1C(=O)NCCN1C(=O)c1cc(OC)c(OC)cc1OC (stereo not given),inactive

row,Structure (SMILES),Potency
1,COc1ccc(CNc2nc(Cl)c(C#N)s2)cc1,"inconclusive: 37.9 µM [inhibitor, single point]"
2,O=C(NCCc1ccc(Cl)cc1)c1ccc2c(c1)OCO2,active: 12 µM
3,CCCCCCNC(=O)N[C@H](C(=O)NCCC[C@H]1CN2C(=NC[C@H]2C)N1CCC(c1ccccc1)c1ccccc1)C(C)O (stereo not given in full),"inconclusive: 8.49 µM [inhibitor, partial curve, poor fit]"
4,Cc1ccc(C2(c3ccc(C)cc3)CC2C(=O)NC(C)C)cc1 (stereo not given),inactive
5,CC(=O)Nc1cc(C(=O)OCC(=O)c2ccc(Cl)cc2Cl)ccc1C,active: 2.39 µM
6,CCOC(=O)c1cc(S(=O)(=O)N2CCN(c3cccc(C)c3C)CC2)[nH]n1,"inconclusive: 26.9 µM [inhibitor, partial curve, poor fit]"
7,Cc1ccc(NCc2nnc(SCC(=O)O)n2Cc2ccccc2)cc1Cl,"inconclusive: 16.9 µM [inhibitor, partial curve]"
8,Cc1nc(-c2noc(-c3cccc(Cl)c3)n2)c(C(F)(F)F)o1,"inconclusive: 30.1 µM [inhibitor, single point]"
9,CC(C)(C)NC(=S)Nc1ccc(Br)cc1,active: 19 µM
10,CCC1=NN2C(=N)/C(=C\c3cccn3-c3ccc(C)cc3C)C(=O)N=C2S1,"inconclusive: 26.9 µM [inhibitor, single point]"
11,Cc1ccc(C(C)C)c(OCc2nc(-c3nonc3N)no2)c1,"inconclusive: 26.9 µM [inhibitor, single point]"
12,C/C(=N\NS(=O)(=O)c1ccc(C)cc1)c1cc2ccccc2oc1=O,"inconclusive: 12 µM [inhibitor, partial curve]"
13,COc1ccc(C(=O)Cc2cc(OC)c(OC)cc2[N+](=O)[O-])cc1,active: 9.53 µM
14,Cc1ccc(S(=O)(=O)/N=C2/NC(=O)/C(=C/c3ccccc3)S2)cc1,"inconclusive: 37.9 µM [inhibitor, single point]"
15,COc1ccc(NC(=O)c2csnn2)cc1,"inconclusive: 37.9 µM [inhibitor, single point]"
16,CCn1c(SCC(O)c2ccccc2)nnc1-c1ccccc1 (stereo not given),"inconclusive: 37.9 µM [inhibitor, partial curve, poor fit]"
17,CCOc1cc(N2CCOCC2)c(OCC)cc1NC(=O)CSc1ccccc1C(=O)O,inactive
18,O=C(Nc1ccc(F)cc1)c1cc(-c2ccncc2)nc2c(Cl)cccc12,inactive
19,CC(C)c1cc(C(=O)NCc2ccccc2)no1,"inconclusive: 37.9 µM [inhibitor, single point]"
20,Cn1c(CN2CCCC2)nc2cc(NC(=O)c3ccc(Cl)cc3)ccc21,"inconclusive: 30.1 µM [inhibitor, partial curve, poor fit]"
21,COc1cc(NC(=O)c2nc3ccccc3n(C)c2=O)cc(OC)c1OC,inactive
22,Cc1c(C(c2cccc(Br)c2)c2c(C)n(C)n(-c3ccccc3)c2=O)c(=O)n(-c2ccccc2)n1C,inactive
